Publication PMC7718735
Results are given in words; binding and its absence hold for the method and conditions named. Some binding calls cover weakened binding; strength is not graded here. Each block holds one molecule with its values, some of them ahead of it.

Amino acid sequences for entries named in this document (tags omitted).
UniProt O60016: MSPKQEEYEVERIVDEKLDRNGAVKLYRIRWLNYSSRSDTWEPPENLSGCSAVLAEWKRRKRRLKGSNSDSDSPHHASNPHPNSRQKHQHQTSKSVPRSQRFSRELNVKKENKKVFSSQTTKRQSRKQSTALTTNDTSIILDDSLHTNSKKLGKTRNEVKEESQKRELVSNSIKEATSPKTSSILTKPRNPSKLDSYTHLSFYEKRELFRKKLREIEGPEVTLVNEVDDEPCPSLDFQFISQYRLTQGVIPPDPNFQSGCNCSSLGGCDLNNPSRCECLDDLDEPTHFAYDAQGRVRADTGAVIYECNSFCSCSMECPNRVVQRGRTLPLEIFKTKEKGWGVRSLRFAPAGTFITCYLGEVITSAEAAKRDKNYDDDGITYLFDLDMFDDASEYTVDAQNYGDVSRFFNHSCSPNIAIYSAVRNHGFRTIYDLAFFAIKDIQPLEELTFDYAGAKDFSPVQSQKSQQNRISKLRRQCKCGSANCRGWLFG
UniProt O13959: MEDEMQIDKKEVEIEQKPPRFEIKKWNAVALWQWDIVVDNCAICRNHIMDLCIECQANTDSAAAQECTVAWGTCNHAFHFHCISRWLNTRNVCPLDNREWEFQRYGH

Tests used:
Experiment in all cases: two-hybrid; split-ubiquitin membrane yeast two-hybrid (MYTH) in S. cerevisiae; bait-Cub-LexA-VP16 strains mated with the arrayed Nub prey library, diploids spotted in quadruplicate on SD-leu-trp-ade-his with 25 mM 3-AT, imaged every 24 hr for 4 days; positive by a colony density cutoff
[1] = target: T1, Lem2 MYTH bait (S. pombe) (UniProt Q10109)
T1 sequence: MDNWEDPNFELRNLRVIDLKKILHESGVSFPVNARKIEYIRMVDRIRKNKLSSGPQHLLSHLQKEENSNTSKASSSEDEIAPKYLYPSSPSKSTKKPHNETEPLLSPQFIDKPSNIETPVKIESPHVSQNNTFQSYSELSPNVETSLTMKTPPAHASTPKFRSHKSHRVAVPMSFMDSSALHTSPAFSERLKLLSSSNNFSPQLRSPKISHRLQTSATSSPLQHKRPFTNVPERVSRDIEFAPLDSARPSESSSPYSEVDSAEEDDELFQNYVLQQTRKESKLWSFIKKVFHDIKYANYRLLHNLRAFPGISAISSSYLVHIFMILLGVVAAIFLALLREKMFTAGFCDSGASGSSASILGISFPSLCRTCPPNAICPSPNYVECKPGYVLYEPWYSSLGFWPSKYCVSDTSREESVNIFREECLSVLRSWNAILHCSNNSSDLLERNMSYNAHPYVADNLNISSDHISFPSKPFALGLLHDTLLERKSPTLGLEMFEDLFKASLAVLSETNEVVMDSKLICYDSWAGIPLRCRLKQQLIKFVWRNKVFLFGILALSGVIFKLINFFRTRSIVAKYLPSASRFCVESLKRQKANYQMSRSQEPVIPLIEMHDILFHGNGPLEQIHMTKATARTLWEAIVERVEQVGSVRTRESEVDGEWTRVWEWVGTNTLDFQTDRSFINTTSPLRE

[2] = target: T2, Cut11 L521F MYTH bait (S. pombe) (UniProt O13961)
T2 sequence: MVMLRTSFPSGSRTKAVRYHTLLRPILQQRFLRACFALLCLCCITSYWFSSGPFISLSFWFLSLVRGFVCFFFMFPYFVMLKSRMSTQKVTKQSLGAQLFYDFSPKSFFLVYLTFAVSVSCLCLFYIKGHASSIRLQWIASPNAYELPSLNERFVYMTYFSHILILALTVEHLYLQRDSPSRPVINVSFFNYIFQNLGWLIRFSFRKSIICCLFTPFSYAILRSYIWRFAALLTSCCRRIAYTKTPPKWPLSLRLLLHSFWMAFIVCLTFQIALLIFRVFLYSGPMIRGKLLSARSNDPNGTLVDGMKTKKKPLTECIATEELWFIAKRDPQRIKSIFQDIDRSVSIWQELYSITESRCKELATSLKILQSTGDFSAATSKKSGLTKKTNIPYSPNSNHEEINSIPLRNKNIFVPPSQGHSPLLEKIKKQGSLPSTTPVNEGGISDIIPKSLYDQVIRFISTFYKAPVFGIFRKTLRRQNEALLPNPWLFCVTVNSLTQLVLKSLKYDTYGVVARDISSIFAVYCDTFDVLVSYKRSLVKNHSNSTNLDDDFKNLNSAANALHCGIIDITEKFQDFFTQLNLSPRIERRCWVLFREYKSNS

[3] = target: T3, Cut11 MYTH bait (wild type) (S. pombe) (UniProt O13961)
T3 sequence: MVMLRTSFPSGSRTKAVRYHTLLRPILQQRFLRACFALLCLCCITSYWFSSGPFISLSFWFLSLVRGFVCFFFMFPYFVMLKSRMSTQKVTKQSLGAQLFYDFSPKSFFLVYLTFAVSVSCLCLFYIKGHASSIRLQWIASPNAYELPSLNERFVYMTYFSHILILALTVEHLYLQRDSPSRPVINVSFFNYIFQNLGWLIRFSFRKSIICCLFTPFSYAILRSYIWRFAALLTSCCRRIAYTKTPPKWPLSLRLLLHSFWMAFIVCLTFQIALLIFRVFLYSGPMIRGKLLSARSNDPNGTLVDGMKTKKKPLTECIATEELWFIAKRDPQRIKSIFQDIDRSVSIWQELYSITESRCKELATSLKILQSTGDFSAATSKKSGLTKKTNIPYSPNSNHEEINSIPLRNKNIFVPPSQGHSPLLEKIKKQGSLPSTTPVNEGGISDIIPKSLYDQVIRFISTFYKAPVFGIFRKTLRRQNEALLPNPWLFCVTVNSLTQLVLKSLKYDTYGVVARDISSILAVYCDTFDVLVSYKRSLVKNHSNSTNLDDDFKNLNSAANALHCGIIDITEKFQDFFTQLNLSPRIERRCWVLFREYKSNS

[4] = target: T4, Ima1 MYTH bait (S. pombe) (UniProt O13681)
T4 sequence: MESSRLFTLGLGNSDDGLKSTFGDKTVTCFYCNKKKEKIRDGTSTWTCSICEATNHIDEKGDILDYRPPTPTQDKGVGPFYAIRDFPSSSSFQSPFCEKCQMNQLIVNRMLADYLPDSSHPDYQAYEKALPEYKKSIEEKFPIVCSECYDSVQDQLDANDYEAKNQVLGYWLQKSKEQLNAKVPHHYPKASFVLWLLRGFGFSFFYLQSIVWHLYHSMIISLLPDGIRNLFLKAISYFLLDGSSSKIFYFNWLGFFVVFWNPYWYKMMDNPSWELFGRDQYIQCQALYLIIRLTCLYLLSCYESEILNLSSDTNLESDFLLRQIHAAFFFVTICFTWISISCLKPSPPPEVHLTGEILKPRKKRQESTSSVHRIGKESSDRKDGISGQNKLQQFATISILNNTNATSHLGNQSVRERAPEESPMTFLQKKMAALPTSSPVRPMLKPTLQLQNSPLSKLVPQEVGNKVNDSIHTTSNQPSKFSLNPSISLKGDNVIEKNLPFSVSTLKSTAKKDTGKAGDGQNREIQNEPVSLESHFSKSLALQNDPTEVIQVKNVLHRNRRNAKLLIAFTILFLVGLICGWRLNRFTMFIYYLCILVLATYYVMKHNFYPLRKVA

Molecule: Clr4 MYTH prey (from UniProt O60016 1-490)
- binding [1]: no binding

B1: Cut11 MYTH prey (protein, UniProt O13961 1-601)
chain: MVMLRTSFPSGSRTKAVRYHTLLRPILQQRFLRACFALLCLCCITSYWFSSGPFISLSFWFLSLVRGFVCFFFMFPYFVMLKSRMSTQKVTKQSLGAQLFYDFSPKSFFLVYLTFAVSVSCLCLFYIKGHASSIRLQWIASPNAYELPSLNERFVYMTYFSHILILALTVEHLYLQRDSPSRPVINVSFFNYIFQNLGWLIRFSFRKSIICCLFTPFSYAILRSYIWRFAALLTSCCRRIAYTKTPPKWPLSLRLLLHSFWMAFIVCLTFQIALLIFRVFLYSGPMIRGKLLSARSNDPNGTLVDGMKTKKKPLTECIATEELWFIAKRDPQRIKSIFQDIDRSVSIWQELYSITESRCKELATSLKILQSTGDFSAATSKKSGLTKKTNIPYSPNSNHEEINSIPLRNKNIFVPPSQGHSPLLEKIKKQGSLPSTTPVNEGGISDIIPKSLYDQVIRFISTFYKAPVFGIFRKTLRRQNEALLPNPWLFCVTVNSLTQLVLKSLKYDTYGVVARDISSILAVYCDTFDVLVSYKRSLVKNHSNSTNLDDDFKNLNSAANALHCGIIDITEKFQDFFTQLNLSPRIERRCWVLFREYKSNS
- binding [2]: binds
- binding [3]: binds

B2: Bem46 MYTH prey (protein, UniProt P54069 1-299)
chain: MAGSLSSAIFNVLKYSGMASLAVTLIALGFLYKYQKTLVYPSAFPQGSRENVPTPKEFNMEYERIELRTRDKVTLDSYLMLQSESPESRPTLLYFHANAGNMGHRLPIARVFYSALNMNVFIISYRGYGKSTGSPSEAGLKIDSQTALEYLMEHPICSKTKIVVYGQSIGGAVAIALTAKNQDRISALILENTFTSIKDMIPTVFPYGGSIISRFCTEIWSSQDEIRKIKKLPVLFLSGEKDEIVPPPQMVLLFGLCGSAKKKFHSFPKCTHNDTCLGDGYFQVIADFLAENDINTPAS
- binding [4]: binds

More lines, now with the values ahead:

- binding [1]: binds weakly
Molecule: Rbx1 MYTH prey (from UniProt O13959 1-107)

- binding [4]: binds
B3: Yea4 MYTH prey (protein, UniProt O74750 1-316)
chain: MIASALSFIFGGCCSNAYALEALVREFPSSGILITFSQFILITIEGLIYFLLNDVQSLKHPKVPRKRWFVVVVMFFAINVLNNVALGFDISVPVHIILRSSGPLTTMAVGRILAGKRYSSLQIGSVFILTIGVIIATLGNAKDLHLHVESMTRFGIGFTILVITQILGAIMGLVLENTYRIYGSDWRESLFYTHALSLPFFLFLLRPIRSQWNDLFAIHTKGFLNLPSGVWYLCFNTLAQYFCVRGVNALGAETSALTVSVVLNVRKFVSLCLSLILFENEMGPAVKFGALLVFGSSAVYASARSKPKTNGLKKND

- binding [2]: binds
- binding [3]: binds
B4: Nup40 MYTH prey (protein, UniProt O13838 1-371)
chain: MSFGGSGSITNRSTLKPLSVDDLRSPSPQKEYRGFRTSVSNIPQEKKFVPSHLSHFGSSQQRRFAPEVSSPLAEPYESSSSFRLSLSSPPSSKFGGPSFGTPKPFLHTNRLGTGSLIEDAPPTQSIYDFSSSRQINALNVGQSSSPFSPVSEKVYDPSFTMSGAPQDSNTSVIVFGFPPELTNQVIAEFSRFGTIISENSLTASSAGFTPSKGPISGNWLQLTYAEPSSAAKAVLSNGMLINDSFMVGCIYSPAEAKEHVPKTLRNSNKDLEMTDASSSETSMSIPVHADAHFQSQSGLGKKVIVQHKNDIFKSSQKHQPRNWLFHYLFGFGSTEPIDEEEKSKTASDNTSLQTSLFGKIVQVVLHTLFGF

- binding [4]: no binding
B5: Pep12 MYTH prey (protein, UniProt O94651 1-263)
chain: MSFVDLEQGRHKIEQNGDFPALASSIAQEIHALRGNTAAIHRYLVNNLTKNLHEVLEQSRELSQKVRSDLVRLANIKDTKYGEEASSFALSKLTRDFNTVLAELQRVQQKCAQQESDSVAAAQAALNQDVGQHFIEEEERNVSLSNNSSGQRQPLTESKISNSQLEYQQRLINERQGEIENLTQGINELNEIFRDLSTIINEQGELVTNIEYNVGNTSTNTKNASRQLQIANEHSRKARKRSFCFLVILVVILGVILTALIMG
